The supplement of paper PMC3334620
Whole data set: some 33,000 sequences, median “E-score (-0.5 to 0.5)” near -0.035, cut for the highest 2% near 0.34. The list shows a part of the results.

biological target: T1, Mot3 (UniProt P54785); experiment: PBM E-score (8-mer binding enrichment) (E-score (-0.5 to 0.5)); higher = stronger / more preferred TF binding; most listed sequences are background and not binding sites; settings: protein concentration: 200 nM; construct: GST-full length
T1 sequence: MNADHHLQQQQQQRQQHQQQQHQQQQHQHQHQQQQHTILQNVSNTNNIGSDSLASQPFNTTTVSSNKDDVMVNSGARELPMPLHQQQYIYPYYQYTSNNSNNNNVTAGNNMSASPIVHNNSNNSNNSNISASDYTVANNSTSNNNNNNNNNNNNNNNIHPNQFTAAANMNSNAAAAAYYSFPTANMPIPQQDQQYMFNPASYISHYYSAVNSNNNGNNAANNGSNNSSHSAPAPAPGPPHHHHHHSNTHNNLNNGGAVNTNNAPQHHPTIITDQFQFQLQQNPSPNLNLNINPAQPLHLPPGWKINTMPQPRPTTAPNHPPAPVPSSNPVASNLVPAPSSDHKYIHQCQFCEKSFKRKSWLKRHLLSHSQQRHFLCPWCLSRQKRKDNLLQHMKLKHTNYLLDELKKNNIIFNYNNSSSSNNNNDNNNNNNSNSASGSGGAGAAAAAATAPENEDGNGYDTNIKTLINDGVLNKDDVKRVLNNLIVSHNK
Method in brief: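 Universal all-10-mer Agilent arrays, double-stranded by primer extension on fresh or once-stripped slides, were probed with about 100-200 nM GST-tagged yeast transcription factors made by PURExpress. Fluorescent anti-GST detected bound protein, and masliner normalised the scans. E-scores from the Universal PBM Analysis Suite were given to each ungapped eight-base word pooled with its reverse complement.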

Sequence	PBM E-score
GGTCTAGA	-0.215
GCGCATAC	0.033
CACGGTAA	0.103
ATCTAAAG	0.136
CTTAGGCC	-0.0744
AGTTGCCG	-0.105
CCGTTCAG	-0.311
CCTTTTCG	0.00969
ACGTCTAA	0.118
CTCCTCAA	-0.184
CGCTAGCC	-0.192
GTTCCCAA	-0.138
CCGATATA	0.0748
CTCCCCAA	-0.0983
AATTATTA	0.14
GTCACCGA	-0.06
GGATAGTA	0.0932
CTGATTAC	0.267
ACATGCAC	0.283
CCGTAGGC	0.285
GACAGCCC	-0.373
TATTAGCA	0.083
AAGTCGGG	-0.28
CCCAGTGA	-0.203
GACTTTGA	-0.00744

Sequence	PBM E-score
ATAATATC	0.00249
CGTTGGTA	0.165
ACCGCCCG	-0.352
CCCAGTTA	-0.142
CACATGTA	0.344
AGTCTCAT	-0.0812
CTGTATTA	0.146
CTATTGGA	-0.153
CTAGGGAA	-0.115
CTCGACAC	0.0998
AGTGCAAC	0.0919
GAGCATCC	-0.36
CGCAATAC	0.262
GTGCTCGA	-0.126
GTGTGGTA	0.0958
AAACGCAA	0.13
CCCCATCG	-0.14
CGGACATA	-0.0853
ATACGGCC	-0.155
CGACTCCA	-0.111
GGTCGATA	-0.259
GAGATGAC	-0.151
AACCAGAC	0.115
CCATCTGC	-0.272
GCCAAATA	-0.0589

Sequence	PBM E-score
GCCGATCC	-0.236
GTGGTGCA	-0.156
AGCCACGA	-0.0837
CACCTGGG	-0.155
AGTGATGG	-0.0829
ACTTAGTG	0.0824
AGGCCATA	-0.164
AGGATAAC	-0.0145
ATCGATAC	0.0638
CCATCGAC	-0.167
ATGGTAAC	0.141
TAGAAAAA	0.122
AACTATGA	0.0224
GAACGTCC	-0.118
CCTAGCAG	-0.203
CTACGCAA	0.278
AGTCTTAT	-0.0765
AGTTTACG	0.188
GTTGGTTA	0.103
AAATGAAC	0.176
CGCGGTCC	-0.263
CATGCTTC	0.0382
CAGCTACG	-0.0695
GTCATTAA	0.0517
GACAGATA	0.0793

Sequence	PBM E-score
CCCGCAGC	-0.378
CTATCTGC	-0.229
GGGAAATA	0.0874
GCCACGTA	0.059
GATCGCAA	-0.129
GGCAGTTA	-0.136
CAACGGCA	0.00468
ACTACTTA	0.117
TCCCGGGA	-0.379
CCTCGGCA	-0.11
ACAACAAA	0.206
CTCTGGAA	-0.124
CAGACGAA	0.0663
CGCTTCGA	-0.15
GGCCAGAA	0.0414
AAACCGCG	-0.0689
CGAGCAAA	-0.173
CCGAGATA	-0.175
CCACACAC	0.00618
AGAAATCA	0.0235
CCCCTAGA	-0.252
ATGGAAAT	0.0932
GGGATACA	0.0538
GGCAGCGA	-0.149
ACCGAGGC	-0.23

Sequence	PBM E-score
GACGGTCA	-0.246
GGTCTCGA	-0.0431
CTCCGGAC	-0.185
AACGCGCG	0.254
CACTGGAC	-0.0976
GCGCCTGA	0.156
ATAGGGAT	0.0533
AAGCACCG	-0.206
CTTGCTTC	0.0817
AGTTCATA	-0.111
GTCACAAC	0.0362
GCGAGGAC	-0.378
CGACGGAA	-0.241
ACGCTGAA	0.0802
GGGCTTTA	-0.151
CACTTGTC	-0.264
AGTCCCGA	-0.214
CTCGCTGC	-0.194
CTAGCCGA	-0.191
TAACTCCA	-0.179
GCGCCTCC	-0.164
GTCCAACA	0.153
CTTATGGC	-0.22
AAGACCGT	-0.0748
AACGTCAT	-0.014

Sequence	PBM E-score
AGTTAGGC	0.105
ACGTCCGG	-0.0368
AGCATCAA	0.0635
GACCCGGC	-0.348
GCGGCACA	-0.246
AAGCGAGA	-0.272
ACCTCGGA	-0.144
TCTACAGA	0.0845
AGCAAACG	-0.232
ATGAGCGA	-0.252
GTTTAGCA	-0.0722
ATTTAACC	0.0628
CACGTTGA	0.169
GGTTCGGA	-0.201
CTGGCACA	-0.11
ATTTTCGC	0.0218
ACCTAAGG	-0.0194
ATGGGATG	-0.0284
GCCAGGCC	-0.25
AACTCAAC	0.0846
GTCATCAA	0.0831
GCGTAGTA	0.194
AATAGCAC	-0.299
CAAATGAC	0.058
CATCTGCG	0.0948

Sequence	PBM E-score
CCCTCTCC	-0.166
ATATGTGA	0.197
CCGACAAG	-0.0369
CCAGTGGA	-0.155
CGTTTTGA	0.0842
AGTTGAAA	0.0214
CCAAGAGA	-0.0138
CTCCGGGA	-0.289
AGATGCGA	-0.09
CCATTAAC	0.181
AGACTCTC	-0.179
GAGTAATA	0.147
ACATTACT	0.218
CGAGATTA	-0.0546
AAGAAGCC	0.0634
TCGTGGAA	-0.0654
ATAGTAGG	0.171
AGGTTCAA	0.222
CTTCACAC	0.262
TGGCACAA	-0.0932
ATAACTGA	0.0367
GTTGAAAC	0.111
GGGCGGAC	-0.298
TACCTAAA	0.319
CTGTGCGC	-0.146

Sequence	PBM E-score
CAGATCAA	0.0556
CCATCAAA	-0.00588
ATAGCCCC	-0.233
GCCAAGCA	-0.288
AAGCCTTC	0.00316
CTGGACTC	-0.157
ACGTCAGA	-0.0628
CGGTGAAG	-0.111
GTATCATA	0.127
AAGACCCA	-0.229
CCTTCCCA	-0.0182
AGTGGGAT	-0.0984
TAATCTAA	0.0482
GATACGGC	-0.121
CCAGAAGC	-0.229
AAATAACA	0.239
GCACACGC	0.125
CTAATACA	0.248
CCTTTCGC	0.0484
CGTTGGTC	-0.0905
CGCCCGCG	-0.259
CGGGTACA	0.026
ACTCCTAT	0.0818
CACCGTAG	-0.129
AGAAATTG	-0.102

Sequence	PBM E-score
CCATCTCA	-0.228
CAAGTCGC	-0.22
ACGAGCAC	-0.00342
ACCTTCAA	0.268
ATACGCTC	0.122
AATTTTAG	0.004
AGTGCGGC	-0.127
CCATCGCA	-0.127
GGCCTATA	-0.148
CTACTCTC	-0.0743
CACAAACG	0.182
CCGTGGAC	-0.298
CGGATTAA	-0.107
CGCGTATA	0.315
GTCCGAAC	-0.0695
AGGGGCAC	-0.0384
ATCTAGCG	-0.0469
CCTTTGGC	0.0667
CACTAGAA	0.00654
CGAATTTC	-0.0508
CACCTCCG	-0.205
CGGGATAA	0.0887
AGTTCAGG	0.134
AGTGGACA	-0.119
TCCAGCGA	-0.24

Sequence	PBM E-score
AACAACTA	0.247
GCTAGCCA	-0.136
CACGACTA	0.0396
CTCTATGC	-0.0578
GTTACCGA	-0.0872
TAGAACAA	0.182
CACGGGCC	-0.13
CGAGGAGC	-0.049
GCAACTAC	0.119
GAATTCTA	-0.00099
GTACTCCA	-0.184
GAAGTTCC	-0.0671
AAGTAACC	0.00035
GCGACAAC	-0.0222
CTGAACCC	-0.0624
CCAACGAA	0.079
CTATAAAA	0.203
ATCGTATG	0.156
GCCTAATA	0.166
ATGCGTCA	-0.106
TAGACCGA	-0.117
CCTCATTC	-0.101
ATAGCATG	0.163
GGATAAAA	-0.127
AGACACAC	-0.0248

Sequence	PBM E-score
CCGGCGGC	-0.379
CACGACAC	0.292
CCACAAGA	-0.184
AGGTGCGC	-0.0403
CGAACCCC	-0.14
ATGTTGTC	0.214
CACGTAGG	0.178
ACGTACTG	0.0554
CCCGGGCG	0.00646
CTTATTAC	0.267
ACCGTGCC	0.336
CGGAATTC	-0.0768
TCAACAGA	0.00663
CGCAGTGC	-0.126
AGCGAGAA	-0.14
ACGTATCG	0.169
ACGGCTCA	-0.127
ATACTAAC	0.0815
CAGAAGCA	-0.103
ACGTGCTC	0.0193
CTCGGCCA	-0.17
CTACCCAC	-0.252
AAAGTTTG	0.113
ACGAGTAA	0.147
GCTCAGTA	0.00303

Sequence	PBM E-score
CTTATAAC	0.199
ATACAGCG	-0.0353
GATCACCC	-0.191
CGTGCACC	-0.0966
ACTGCTGG	-0.383
ACCTACTG	0.0236
CTGCGAGA	-0.305
ATGTATTC	0.363
ACACCTGC	0.219
TCCTGTAA	0.338
ACAATTCA	0.101
GGGGAGAA	-0.0327
CGCCCCCC	-0.222
AGCCGGAC	-0.0387
CGCAGGTA	0.35
CCGGTTAA	-0.00784
CGTTACTC	-0.0212
ACCTAGAA	0.0678
ACCTTATA	0.156
CCAAACGG	-0.405
GACCCGAC	-0.23
TATCATGA	-0.00632
GCCTTCCA	0.151
ATTTATAC	0.198
AATTGGCC	-0.17

Sequence	PBM E-score
ACCTCCTA	-0.12
CAGAATCG	-0.219
ATATAGAG	-0.161
GACGGCAC	-0.0936
GCAGGATA	-0.121
AGTTACAC	0.307
CGACATAC	0.0107
AGTTGGAT	-0.0454
CCAATGTA	0.0935
GCACGACC	-0.0631
CAAGTGTC	0.00445
AACCAGAG	0.00174
GTAAAGTA	0.289
CCTTAAGA	0.0196
GAACAGAA	0.0149
ATTCCCTC	-0.13
AAGCGGGT	-0.0617
GAGAGCGA	-0.214
AATTCGTA	0.11
CCTTTGCC	0.225
CACACATG	0.149
GTGCTTTA	0.0864
ACATTAGA	-0.0584
CCTAATAG	0.046
CGTTGCAG	-0.0727

Sequence	PBM E-score
GGTGTGAA	0.0833
AATGGCGA	-0.102
ACACCGTG	0.217
CCGGTTGC	-0.146
GCGAAAAA	0.0872
AGACGGCC	-0.18
AAATGGGA	-0.17
CAAATTGG	0.0771
AGGGGTTA	-0.00811
GCCTTCAC	0.184
AGACCTAC	-0.00972
CATCTAAG	-0.197
CACTTTGG	-0.0925
TCGATAAA	0.0569
CCAACCCG	-0.147
GGCTTGAA	-0.0973
CAAGATGG	-0.099
CCACTGCA	-0.151
GGTTTTAA	0.171
